Assay results taken from the supplement of paper PMC3334620.
The full ranking holds about 33,000 sequences; the median of “E-score (-0.5 to 0.5)” is about -0.032, and the highest 2% start at about 0.36. Some of the results follow.

The sequences below were run against T1, Sko1 (UniProt Q02100) (assay: PBM E-score (8-mer binding enrichment) (E-score (-0.5 to 0.5)); higher = stronger / more preferred TF binding; most listed sequences are background and not binding sites). Conditions: protein concentration: 200 nM; construct: GST-full length.
T1 sequence: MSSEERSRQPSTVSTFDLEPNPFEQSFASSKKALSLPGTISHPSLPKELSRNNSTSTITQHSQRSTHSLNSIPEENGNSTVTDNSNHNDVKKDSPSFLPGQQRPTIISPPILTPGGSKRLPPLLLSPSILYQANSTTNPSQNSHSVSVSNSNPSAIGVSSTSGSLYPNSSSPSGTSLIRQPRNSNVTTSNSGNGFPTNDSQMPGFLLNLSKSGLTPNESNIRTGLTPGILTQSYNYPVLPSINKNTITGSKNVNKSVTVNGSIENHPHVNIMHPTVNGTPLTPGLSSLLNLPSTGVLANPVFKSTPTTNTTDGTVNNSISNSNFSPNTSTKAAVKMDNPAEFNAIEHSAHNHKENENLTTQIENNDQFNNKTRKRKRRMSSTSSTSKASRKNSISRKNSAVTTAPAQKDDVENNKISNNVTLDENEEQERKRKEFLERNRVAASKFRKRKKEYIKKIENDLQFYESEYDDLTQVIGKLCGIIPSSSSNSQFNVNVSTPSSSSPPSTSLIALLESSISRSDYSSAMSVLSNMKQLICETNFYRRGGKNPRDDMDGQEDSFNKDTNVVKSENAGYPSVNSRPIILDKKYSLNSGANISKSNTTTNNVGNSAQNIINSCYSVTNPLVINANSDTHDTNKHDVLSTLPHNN
Procedure, shortened: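 GST-tagged yeast TFs (full-length or DNA-binding domain) were made by PURExpress in vitro transcription/translation and applied at about 100-200 nM to universal all-10-mer Agilent arrays. The arrays were made double-stranded by primer extension, on fresh or once-stripped slides. Bound protein was detected with fluorescent anti-GST, and scans were normalised with masliner. Each ungapped eight-base word, pooled with its reverse complement, received an E-score (modified Wilcoxon-Mann-Whitney statistic) from the Universal PBM Analysis Suite.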

| Sequence | PBM E-score |
| --- | --- |
| ATTCAAAG | 0.123 |
| CGCGGGTC | -0.0442 |
| CAACGACA | 0.115 |
| CCTTAGTA | -0.102 |
| CAGACCTA | 0.125 |
| AACTCCGC | -0.149 |
| CAAAAACG | 0.188 |
| CTCGAAAA | 0.0133 |
| CAACCAAG | 0.0968 |
| CGGGGGCA | -0.24 |
| GAACGATA | -0.115 |
| ACATGAGC | -0.00402 |
| AGTAACAG | -0.0766 |
| GACGAATC | 0.291 |
| CGCTCATA | -0.0863 |
| AGATACCC | -0.0725 |
| AAGCCCGG | -0.265 |
| AAACCCTA | -0.103 |
| ACCTCTGG | -0.237 |
| CAGACCCC | -0.307 |
| AGAGATGG | -0.0345 |
| ACAAATCA | 0.2 |
| GTGATAAC | 0.201 |
| TAGAGAGA | -0.0704 |
| CCCCAGGG | -0.401 |

| Sequence | PBM E-score |
| --- | --- |
| GGATCACA | 0.041 |
| CAATTGCC | 0.0716 |
| GCGTCGCC | 0.043 |
| CACCGCCA | -0.0533 |
| CTCCAACC | -0.0963 |
| CGGTTCTA | -0.118 |
| ATGCCCAC | 0.0382 |
| AATATAGG | 0.168 |
| CTGGCTCA | -0.108 |
| CGTGGGAC | 0.065 |
| TCGAACAA | 0.171 |
| ACATCTGG | -0.063 |
| GAAGGAGC | -0.183 |
| GAATTGAC | 0.0399 |
| ATGCCTTG | -0.0855 |
| CCAGGGCG | -0.3 |
| CTCCACGA | 0.0266 |
| AAAGAGCG | 0.0322 |
| AACAAGCC | -0.133 |
| GCCCCACA | -0.0155 |
| GCGGGTCC | -0.162 |
| GCTATTCC | -0.128 |
| CGTCCTTA | -0.0754 |
| ATCTATAG | -0.0108 |
| CTGATCCA | -0.136 |

| Sequence | PBM E-score |
| --- | --- |
| ACATCAAG | 0.242 |
| CGCGCTCC | -0.121 |
| GAGTGCTA | -0.158 |
| AACTCCGG | -0.0665 |
| AGTTTGTC | -0.0092 |
| TGAACCAA | 0.108 |
| AAATCAAA | 0.126 |
| ATCGCTAC | -0.0081 |
| AGTTACCG | -0.0227 |
| ACGGTATG | 0.164 |
| CATATTCG | 0.145 |
| GCGTATAA | 0.271 |
| GTAGACAA | 0.114 |
| GGACTTGA | -0.142 |
| CGGACGAA | 0.0658 |
| ACGGGCCC | -0.224 |
| ATTAAACC | 0.0603 |
| ATTCTTGG | -0.00065 |
| AGACCCCT | -0.242 |
| ATCAATGA | 0.294 |
| GGCCCACC | -0.243 |
| CGATTCTC | -0.0652 |
| ACGTACTA | 0.426 |
| GAGGGGAA | -0.0615 |
| CCTACTCC | -0.16 |

| Sequence | PBM E-score |
| --- | --- |
| GACCCGCA | -0.149 |
| GCGCTCCA | -0.256 |
| ATCCTCCG | -0.212 |
| CTAGTAAC | -0.0053 |
| GACAATAA | 0.116 |
| CGACACTC | -0.00392 |
| ATCGTCGC | 0.0155 |
| CAGCGCGG | -0.158 |
| CACCGGTG | -0.274 |
| CGACGGAG | -0.197 |
| ATTGATGG | 0.146 |
| GAAGGTCA | 0.0225 |
| CCGTTCAC | -0.191 |
| CCTACGAA | 0.0841 |
| ACCTCCTC | -0.0403 |
| CTTGTGTA | 0.12 |
| CCGAAAGA | -0.0515 |
| CGCATCGC | -0.0224 |
| GAATCTCC | -0.198 |
| CCCTTCTC | -0.362 |
| GTTTTCGA | 0.111 |
| CATTGGTC | -0.282 |
| CACAAATC | 0.0576 |
| AACGAAAG | 0.15 |
| GGGGTGGA | -0.138 |

| Sequence | PBM E-score |
| --- | --- |
| AAAGTTCC | -0.132 |
| TCATGAAA | 0.0769 |
| GAGCCGGC | -0.243 |
| AGTTTATG | 0.0927 |
| CAGTTCGG | -0.064 |
| ATGTGTCG | 0.0574 |
| CACCTCTC | -0.0383 |
| CTAAGATA | -0.023 |
| CGTGAGCC | -0.0606 |
| ATCAATTA | 0.303 |
| AGCAATAC | 0.123 |
| ACTTTCCG | -0.0709 |
| AGGTGGCG | -0.0429 |
| ACCTTGGG | -0.0151 |
| TGTGTGAA | 0.149 |
| TCTACAAA | 0.0537 |
| AATGTAGT | 0.0143 |
| ACTTGAGA | 0.132 |
| AACATGTA | 0.243 |
| AATCTTAT | 0.193 |
| CAAGCTTG | -0.133 |
| ATGCCCTG | -0.17 |
| AGAGGAAT | -0.0119 |
| CAGTTCTC | 0.00085 |
| GATGCGTA | 0.272 |

| Sequence | PBM E-score |
| --- | --- |
| AAACCCCC | -0.331 |
| CTATCTCA | 0.0341 |
| AGACTTTC | -0.0806 |
| ACATAATC | 0.319 |
| AGAGTATA | -0.0892 |
| GAGTTCCC | -0.273 |
| ATGAGCCG | -0.232 |
| ACCTTCTG | -0.156 |
| ACAGCGCC | -0.304 |
| AAGACCTA | -0.109 |
| CTCGGGTA | -0.272 |
| ACAGGTCA | -0.104 |
| AATACGGG | -0.111 |
| CGCCCGTC | -0.172 |
| GTGTACTA | 0.171 |
| GTCGGAAA | 0.0588 |
| GTAAGGTA | 0.255 |
| ATTCTACG | 0.29 |
| GCGCCGCC | -0.159 |
| GGGGCTCA | -0.301 |
| AAAAAGCG | 0.0343 |
| ACCGACAA | -0.113 |
| GCTGTCGA | -0.121 |
| CACTTACA | 0.164 |
| CCCTATCC | -0.24 |

| Sequence | PBM E-score |
| --- | --- |
| AAAGAAAT | 0.156 |
| CACTGCTG | -0.162 |
| CATTTGAG | 0.112 |
| ATTCCCCG | -0.237 |
| CGGGACCA | -0.274 |
| AATTTCAT | 0.198 |
| AAGTCCCA | -0.204 |
| CAACAGTA | -0.0581 |
| AATATTCA | 0.15 |
| AGTAGATC | -0.0965 |
| CTGAGTGA | -0.0615 |
| CAGTCAGA | -0.0878 |
| CCGTATAA | 0.0514 |
| CCGGGGGC | -0.282 |
| ACAGAGCT | -0.175 |
| GACTATAC | 0.0701 |
| ACGTTTTA | 0.364 |
| TACCTTAA | -0.0124 |
| ACAAATAG | 0.14 |
| CCCGTTTA | -0.145 |
| CACCCCAA | 0.0671 |
| AAATCGTT | 0.191 |
